Literature values, collected in PubChem BioAssay AID1259409 (Chemical Carcinogenesis Research Information System (CCRIS), 2018).
This continues a long series; more values of the same kind are listed elsewhere.

System: rodent chemically induced tumor inhibition, incidence and multiplicity
Test: CCRIS tumor inhibitor studies
Settings: Route [Inhibitor]: ORAL, Species: RAT, Promoter: NONE USED
Description: The CCRIS database contains chemical records with carcinogenicity, mutagenicity, tumor promotion, and tumor inhibition test results. It was developed by the National Cancer Institute (NCI). Data are derived from studies cited in primary journals, current awareness tools, NCI reports, and other sources. Test results have been reviewed by experts in carcinogenesis and mutagenesis.
CCRIS provides historical information from the years 1985 - 2011. It is no longer updated.
This is an archive assay for CCRIS tumor inhibitor studies.

SMILES: O=[Se](O)O
- tumour outcome (control, treated, inhibition, significance) (Carcinogen: AZOXYMETHANE, 25843-45-2, Carcinogen: AZOXYMETHANE, 25843-45-2, Dose [Inhibitor]: 2 PPM IN DRINKING WATER DAILY STARTING SIMULTANEOUSLY WITH CARCINOGEN TREATMENT AND CONTINUING THROUGH END OF STUDY (STU, Dose [Inhibitor]: 2 PPM IN DRINKING WATER DAILY STARTING SIMULTANEOUSLY WITH CARCINOGEN TREATMENT AND CONTINUING THROUGH END OF STUDY (STU, Strain/Sex: SPRAGUE-DAWLEY/MALE, Target Tissue: Type of Lesion: LARGE INTESTINE: MALIGNANT TUMOR, Dose [Carcinogen]: 8 MG/KG BW IN AQUEOUS SOLUTION 1/WK FOR 8 WK): 90%, 93%, -3%, not significant
- tumour outcome (control, treated, inhibition, significance) (Carcinogen: AZOXYMETHANE, 25843-45-2, Carcinogen: AZOXYMETHANE, 25843-45-2, Dose [Inhibitor]: 2 PPM IN DRINKING WATER DAILY STARTING SIMULTANEOUSLY WITH CARCINOGEN TREATMENT AND CONTINUING THROUGH END OF STUDY (STU, Dose [Inhibitor]: 2 PPM IN DRINKING WATER DAILY STARTING SIMULTANEOUSLY WITH CARCINOGEN TREATMENT AND CONTINUING THROUGH END OF STUDY (STU, Strain/Sex: SPRAGUE-DAWLEY/MALE, Target Tissue: Type of Lesion: SMALL INTESTINE: MALIGNANT TUMOR, Dose [Carcinogen]: 8 MG/KG BW IN AQUEOUS SOLUTION 1/WK FOR 8 WK): 90%, 93%, -3%, not significant
- tumour outcome (control, treated, inhibition, significance) (Carcinogen: N-METHYL-N-NITROSOUREA, 684-9-35, Carcinogen: N-METHYL-N-NITROSOUREA, 684-9-35, Dose [Inhibitor]: 4 PPM IN DRINKING WATER DAILY FOR 10 MO STARTING SIMULTANEOUSLY WITH CARCINOGEN TREATMENT (STUDY DURATION: 10 MO), Dose [Inhibitor]: 4 PPM IN DRINKING WATER DAILY FOR 10 MO STARTING SIMULTANEOUSLY WITH CARCINOGEN TREATMENT (STUDY DURATION: 10 MO), Strain/Sex: WE/FEMALE, Target Tissue: Type of Lesion: BRAIN AND SPINAL CORD: NEOPLASM, Dose [Carcinogen]: 20 MG/KG BW ONCE EVERY 4 WK FOR 40 WK): 7/20 (35%), 10/23 (43%), -23%, not significant
- tumour outcome (control, treated, inhibition, significance) (Carcinogen: N-METHYL-N-NITROSOUREA, 684-9-35, Carcinogen: N-METHYL-N-NITROSOUREA, 684-9-35, Dose [Inhibitor]: 4 PPM IN DRINKING WATER DAILY FOR 10 MO STARTING SIMULTANEOUSLY WITH CARCINOGEN TREATMENT (STUDY DURATION: 10 MO), Dose [Inhibitor]: 4 PPM IN DRINKING WATER DAILY FOR 10 MO STARTING SIMULTANEOUSLY WITH CARCINOGEN TREATMENT (STUDY DURATION: 10 MO), Strain/Sex: WE/FEMALE, Target Tissue: Type of Lesion: FORESTOMACH: NEOPLASM, Dose [Carcinogen]: 20 MG/KG BW ONCE EVERY 4 WK FOR 40 WK): 19/20 (95%), 22/23 (96%), -1%, not significant
- tumour outcome (control, treated, inhibition, significance) (Carcinogen: N-METHYL-N-NITROSOUREA, 684-9-35, Carcinogen: N-METHYL-N-NITROSOUREA, 684-9-35, Dose [Inhibitor]: 4 PPM IN DRINKING WATER DAILY FOR 10 MO STARTING SIMULTANEOUSLY WITH CARCINOGEN TREATMENT (STUDY DURATION: 10 MO), Dose [Inhibitor]: 4 PPM IN DRINKING WATER DAILY FOR 10 MO STARTING SIMULTANEOUSLY WITH CARCINOGEN TREATMENT (STUDY DURATION: 10 MO), Strain/Sex: WE/FEMALE, Target Tissue: Type of Lesion: HEART: NEUROGENIC SARCOMA, Dose [Carcinogen]: 20 MG/KG BW ONCE EVERY 4 WK FOR 40 WK): 7/20 (35%), 9/23 (39%), -11%, not significant
- tumour outcome (control, treated, inhibition, significance) (Carcinogen: N-METHYL-N-NITROSOUREA, 684-9-35, Carcinogen: N-METHYL-N-NITROSOUREA, 684-9-35, Dose [Inhibitor]: 4 PPM IN DRINKING WATER DAILY FOR 10 MO STARTING SIMULTANEOUSLY WITH CARCINOGEN TREATMENT (STUDY DURATION: 10 MO), Dose [Inhibitor]: 4 PPM IN DRINKING WATER DAILY FOR 10 MO STARTING SIMULTANEOUSLY WITH CARCINOGEN TREATMENT (STUDY DURATION: 10 MO), Strain/Sex: WE/FEMALE, Target Tissue: Type of Lesion: MAMMARY GLAND: NEOPLASM, Dose [Carcinogen]: 20 MG/KG BW ONCE EVERY 4 WK FOR 40 WK): 15/20 (75%), 15/23 (65%), 13%, not significant
- tumour outcome (control, treated, inhibition, significance) (Carcinogen: N-METHYL-N-NITROSOUREA, 684-9-35, Carcinogen: N-METHYL-N-NITROSOUREA, 684-9-35, Dose [Inhibitor]: 4 PPM IN DRINKING WATER DAILY FOR 10 MO STARTING SIMULTANEOUSLY WITH CARCINOGEN TREATMENT (STUDY DURATION: 10 MO), Dose [Inhibitor]: 4 PPM IN DRINKING WATER DAILY FOR 10 MO STARTING SIMULTANEOUSLY WITH CARCINOGEN TREATMENT (STUDY DURATION: 10 MO), Strain/Sex: WE/FEMALE, Target Tissue: Type of Lesion: PERIPHERAL NERVES: NEOPLASM, Dose [Carcinogen]: 20 MG/KG BW ONCE EVERY 4 WK FOR 40 WK): 6/20 (30%), 2/23 (9%), 70%, not significant
